Reference: the supplement of paper PMC10338343
± gives the standard deviation. The list shows a part of the results, in another mix than the full data.

Tested on: MIWI (PIWIL1) piRISC loaded with L1MC piRNA (30 nt)
Test: pre-steady-state target cleavage rate (min^-1); MIWI and MILI are mouse PIWI proteins and EfPiwi is from a freshwater sponge; tags in brackets are library labels; higher = faster piRNA-guided slicing of the target
Details: guide: L1MC piRNA 5'p-UAACUAAAUACUAUGCAAGCUGUAGGUCCU
How it was run: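 The pre-steady-state cleavage rate was obtained by Cleave-'n-Seq with a burst-and-steady-state fit. A transcribed, DNA-blocked target RNA library (0.1 nM) was mixed with 1 nM active affinity-purified piRISC carrying one synthetic guide, with or without 500 nM GTSF1 partner protein, in HEPES–potassium acetate buffer at 33 °C for 0–8 or 0–960 min. Uncleaved targets were sequenced and normalised to depth and to weakly complementary targets, with three trials pooled and k3 capped at 0.0001 min^-1.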

[1] = auxiliary factor: 500 nM mouse GTSF1
[2] = auxiliary factor: none (no GTSF1)

UCCUGGAUGUGCUUGGAUAGUAUUUAGAUA
pre-steady-state target cleavage rate [1]: 0.0371 ± 0.014
pre-steady-state target cleavage rate [2]: 0.00781 ± 0.0037

UGGUCCUACAGCUUGCAUAGAAUUUAGUUA
pre-steady-state target cleavage rate [1]: 0.377 ± 0.023
pre-steady-state target cleavage rate [2]: 0.0231 ± 0.0041

UCCUGGAUCAGCUUCAUAGUAUUUAGUUA
pre-steady-state target cleavage rate [1]: 0.954 ± 0.056
pre-steady-state target cleavage rate [2]: 0.00538 ± 0.002

AGGACCAACAGCUUGCAUAGUAUUUAGAUA
pre-steady-state target cleavage rate [1]: 0.509 ± 0.045
pre-steady-state target cleavage rate [2]: 0.0557 ± 0.011

UCCACCAACAGCUUGCAUUGUAUUUAGUUA
pre-steady-state target cleavage rate [1]: 1.01 ± 0.034
pre-steady-state target cleavage rate [2]: 0.028 ± 0.0067

UCGACCUACUGCUUGCAUAGUAUUUAGAAA
pre-steady-state target cleavage rate [1]: 0.259 ± 0.027
pre-steady-state target cleavage rate [2]: 0.00884 ± 0.0021

UGGACCUACAGCUAGCAUAGUAUUUACAAA
pre-steady-state target cleavage rate [1]: 0.249 ± 0.03
pre-steady-state target cleavage rate [2]: 0.00255 ± 0.0025

UCGACCAACAGCUUGCAUAGUAUAUAGUUA
pre-steady-state target cleavage rate [1]: 0.823 ± 0.049
pre-steady-state target cleavage rate [2]: 0.0241 ± 0.0064

UCCUGGAUCAGCAUGCAUAGAAUUUAGUUA
pre-steady-state target cleavage rate [1]: 0.11 ± 0.013
pre-steady-state target cleavage rate [2]: 0.00583 ± 0.0026

AGCACCUACAGCUUGCAAAGUAUUUAGUUA
pre-steady-state target cleavage rate [1]: 0.829 ± 0.063
pre-steady-state target cleavage rate [2]: 0.0263 ± 0.0047

UCCUGCUACAGCUUGCAUUGUAUUUAGUUA
pre-steady-state target cleavage rate [1]: 1.02 ± 0.045
pre-steady-state target cleavage rate [2]: 0.0265 ± 0.0052

UCCUGGUACAGCUUGCAUAGUAUUUUGUAA
pre-steady-state target cleavage rate [1]: 0.107 ± 0.022
pre-steady-state target cleavage rate [2]: 0.0105 ± 0.0027

UCCUCCUACAGCUUGCAUAGUAUUUAUGUUA
pre-steady-state target cleavage rate [1]: 0.387 ± 0.021
pre-steady-state target cleavage rate [2]: 0.0232 ± 0.0055

AGGUGCUACAGCUUGCAUAGUAUUUAGAAA
pre-steady-state target cleavage rate [1]: 0.165 ± 0.037
pre-steady-state target cleavage rate [2]: 0.00465 ± 0.0018

UCCUGGAUCAGCUUGUAUAGUAUUUAGUUA
pre-steady-state target cleavage rate [1]: 1.64 ± 0.1
pre-steady-state target cleavage rate [2]: 0.0468 ± 0.012

AGCACCUACAGCUUGCAUAGUAUUUAGUUA
pre-steady-state target cleavage rate [1]: 1.19 ± 0.16
pre-steady-state target cleavage rate [2]: 0.246 ± 0.073

UGGACCUACAGCUAGCAUAGUAUUUAGAUA
pre-steady-state target cleavage rate [1]: 0.508 ± 0.042
pre-steady-state target cleavage rate [2]: 0.00987 ± 0.0025

UCCUGGUACAGCUUGCUAGUAUUUAGUUA
pre-steady-state target cleavage rate [1]: 0.019 ± 0.0058
pre-steady-state target cleavage rate [2]: 0.00454 ± 0.0026

UGGUCCUACAGCUUGGAUAGUAUUUAGUUA
pre-steady-state target cleavage rate [1]: 1.22 ± 0.038
pre-steady-state target cleavage rate [2]: 0.0568 ± 0.0069

AUGACCUACAGCUUGCAUAGUAUUUAGUUA
pre-steady-state target cleavage rate [1]: 1.06 ± 0.03
pre-steady-state target cleavage rate [2]: 0.0859 ± 0.013

UGGACCUACAGCUUGCAUAGUAUUUAGUAUA
pre-steady-state target cleavage rate [1]: 1 ± 0.078
pre-steady-state target cleavage rate [2]: 0.039 ± 0.0081

UCCAGCUACAGCUUGCAUAGUAUUUAGAUA
pre-steady-state target cleavage rate [1]: 0.322 ± 0.042
pre-steady-state target cleavage rate [2]: 0.012 ± 0.0026

UGGACCUACACGCUUGCAUAGUAUUUAGUUA
pre-steady-state target cleavage rate [1]: 1.06 ± 0.06
pre-steady-state target cleavage rate [2]: 0.0641 ± 0.013

UGGACCUACAGCUUGCUUAGUAUUAAGUUA
pre-steady-state target cleavage rate [1]: 0.454 ± 0.041
pre-steady-state target cleavage rate [2]: 0.012 ± 0.0028

UGGACCUACAGCUUGCAUAGUAUUUAUUUA
pre-steady-state target cleavage rate [1]: 0.373 ± 0.042
pre-steady-state target cleavage rate [2]: 0.0311 ± 0.0059

UCCUCCUACAGCUUGGAUAGUAUUUAGAUA
pre-steady-state target cleavage rate [1]: 0.372 ± 0.039
pre-steady-state target cleavage rate [2]: 0.00865 ± 0.0019

AGGACCUACAGGUUGCAAAGUAUUUAGUUA
pre-steady-state target cleavage rate [1]: 1.21 ± 0.045
pre-steady-state target cleavage rate [2]: 0.0226 ± 0.0041

UCCACCUACUGCUUGCAUAGUAAUUAGUUA
pre-steady-state target cleavage rate [1]: 0.364 ± 0.025
pre-steady-state target cleavage rate [2]: 0.018 ± 0.0036

UCCUGGAUGUGCUUGGAUAGUAAUUAGUUA
pre-steady-state target cleavage rate [1]: 0.0587 ± 0.013
pre-steady-state target cleavage rate [2]: 0.0105 ± 0.0032

UCCACCAACAGCUUGCAUAGUAUUUAGUAA
pre-steady-state target cleavage rate [1]: 0.644 ± 0.039
pre-steady-state target cleavage rate [2]: 0.0342 ± 0.0071

AGGAGGUACAGCUUGCAUAGUAUUUAGAAA
pre-steady-state target cleavage rate [1]: 0.324 ± 0.044
pre-steady-state target cleavage rate [2]: 0.0123 ± 0.0037

UCCUCCUACAGCUUGCAUAGUAUUUUAGUUA
pre-steady-state target cleavage rate [1]: 1.04 ± 0.044
pre-steady-state target cleavage rate [2]: 0.0227 ± 0.0055

UGGACCUACAGCUUGCAAAGUAUUUAGAUA
pre-steady-state target cleavage rate [1]: 0.569 ± 0.048
pre-steady-state target cleavage rate [2]: 0.0157 ± 0.0032

ACGACCUACACCUUGCAUAGUAUUUAGUUA
pre-steady-state target cleavage rate [1]: 1.16 ± 0.042
pre-steady-state target cleavage rate [2]: 0.0749 ± 0.014

UCCUGGAUGAGCUUGCAUAGUAUUUGGUUA
pre-steady-state target cleavage rate [1]: 0.635 ± 0.046
pre-steady-state target cleavage rate [2]: 0.0303 ± 0.0095

UCGACCUACAGCUUGCUAAGUAUUUAGUUA
pre-steady-state target cleavage rate [1]: 0.307 ± 0.027
pre-steady-state target cleavage rate [2]: 0.00295 ± 0.0014

UCCACCUACAGGUUGCAUAGUAUUUACUUA
pre-steady-state target cleavage rate [1]: 0.384 ± 0.046
pre-steady-state target cleavage rate [2]: 0.0205 ± 0.0031

UCGACCUACAGCUAUGCAUAGUAUUUAGUUA
pre-steady-state target cleavage rate [1]: 1.14 ± 0.067
pre-steady-state target cleavage rate [2]: 0.0393 ± 0.0097

UCGACCUACAUCUUGCAUAGUAUUUAGUUA
pre-steady-state target cleavage rate [1]: 1.61 ± 0.043
pre-steady-state target cleavage rate [2]: 0.077 ± 0.014

UCCUGGAACAGCUUGCAUAGUAUAUUGUUA
pre-steady-state target cleavage rate [1]: 0.303 ± 0.036
pre-steady-state target cleavage rate [2]: 0.014 ± 0.0052

UCCACCAUGAGCUUGCAUAGUAUUUACAAA
pre-steady-state target cleavage rate [1]: 0.155 ± 0.023
pre-steady-state target cleavage rate [2]: 0.00278 ± 0.002

UCCUGGAUGUCCUUGCAUAGUAUGUAGUUA
pre-steady-state target cleavage rate [1]: 0.0151 ± 0.0053
pre-steady-state target cleavage rate [2]: 0.0033 ± 0.0027

UCCUGGAUCAGCUUGCAUAGUAUUUAGUGA
pre-steady-state target cleavage rate [1]: 0.896 ± 0.04
pre-steady-state target cleavage rate [2]: 0.0419 ± 0.0085

UCCUGGAUGUGCUUGCAUAGUAUUCAGUUA
pre-steady-state target cleavage rate [1]: 0.122 ± 0.017
pre-steady-state target cleavage rate [2]: 0.0161 ± 0.004

UCCUGCUUGUGCUUGCAUAGUAUUUAGUAA
pre-steady-state target cleavage rate [1]: 0.133 ± 0.019
pre-steady-state target cleavage rate [2]: 0.0144 ± 0.0036

UCCUGCUACAGCUAGGAUAGUAUUUAGUUA
pre-steady-state target cleavage rate [1]: 1.15 ± 0.12
pre-steady-state target cleavage rate [2]: 0.006 ± 0.0018

UCCUGGAUCAGCUUGCAUAGUAUUUAGGUUA
pre-steady-state target cleavage rate [1]: 0.777 ± 0.051
pre-steady-state target cleavage rate [2]: 0.0343 ± 0.0079

UCGACCUACAGCUGUGCAUAGUAUUUAGUUA
pre-steady-state target cleavage rate [1]: 1.42 ± 0.073
pre-steady-state target cleavage rate [2]: 0.0386 ± 0.0081

UCGUCCUACAGCUUGCAUAGUAUUAAGUUA
pre-steady-state target cleavage rate [1]: 0.442 ± 0.035
pre-steady-state target cleavage rate [2]: 0.019 ± 0.0034

UCCUCCUACAGCUUGCAUAGUAUAAUGUUA
pre-steady-state target cleavage rate [1]: 0.346 ± 0.027
pre-steady-state target cleavage rate [2]: 0.0146 ± 0.0024

AGGACCUACUCCUUGCAUAGUAUUUAGUAA
pre-steady-state target cleavage rate [1]: 0.689 ± 0.056
pre-steady-state target cleavage rate [2]: 0.0403 ± 0.0084

UCCACCUACAGCUUGCAAAGUUUUUAGUUA
pre-steady-state target cleavage rate [1]: 0.286 ± 0.019
pre-steady-state target cleavage rate [2]: 0.0128 ± 0.0027

UCCUGGAUCAGCUUAGCAUAGUAUUUAGUUA
pre-steady-state target cleavage rate [1]: 0.866 ± 0.054
pre-steady-state target cleavage rate [2]: 0.0133 ± 0.0038

UCGACCUACAGCUUGCAUACUAUUUAGAAA
pre-steady-state target cleavage rate [1]: 0.238 ± 0.039
pre-steady-state target cleavage rate [2]: 0.00653 ± 0.0025

UCCUGCUACUGCUAGCAUAGUAUUUAGUUA
pre-steady-state target cleavage rate [1]: 0.764 ± 0.062
pre-steady-state target cleavage rate [2]: 0.0125 ± 0.0028

AGGACCUAGAGCUUGCAUAGUAUUUUGUUA
pre-steady-state target cleavage rate [1]: 0.825 ± 0.061
pre-steady-state target cleavage rate [2]: 0.0386 ± 0.0083

UCCUGGAACAGGUUGGAUAGUAUUUAGUUA
pre-steady-state target cleavage rate [1]: 0.698 ± 0.06
pre-steady-state target cleavage rate [2]: 0.0175 ± 0.0039

UGGACCUACAGCAUGCAAAGUAUUUAGUUA
pre-steady-state target cleavage rate [1]: 1.07 ± 0.058
pre-steady-state target cleavage rate [2]: 0.0143 ± 0.0031

UCGACCUACAGCUUGCAUAGUAUAUAGAUA
pre-steady-state target cleavage rate [1]: 0.29 ± 0.04
pre-steady-state target cleavage rate [2]: 0.00446 ± 0.0022

UCCUGGAUGUGCUUGAAUAGUAUUUAGUUA
pre-steady-state target cleavage rate [1]: 0.276 ± 0.02
pre-steady-state target cleavage rate [2]: 0.0159 ± 0.004
